PubChem BioAssay AID1768 (National Center for Advancing Translational Sciences (NCATS), 2009)
About 620 (0.23%) of roughly 270,000 compounds were called active. This list was built around the results that the source calls inconclusive (neither active nor inactive); the mix of calls is not that of the screen. Calls follow the shape of the dose curve; as a rule, active = well fitted inhibition curve with a large enough effect in the polarisation, with a control signal flat (not every such curve was filed as active); inconclusive = small, poorly fitted or top-dose-only effect, or effect the other way, or a change in a side signal; inactive = no such curve, though single readings can be large or run the other way; the % refers to the polarisation. A potency beside an inconclusive call is a rough fit, not a confirmed value. “Side channel” marks fits to a control or component signal instead of the main read-out.
Potency is read from the fitted curve at half-maximal effect; tags tell the direction and shape of the fitted curve or compound fluorescence and quenching.

What follows are molecules tested against Menin (Homo sapiens) (UniProt O00255) (assay: qHTS Assay for Inhibitors Targeting the Menin-MLL Interaction in MLL Related Leukemias: Competition With Texas Red Labeled MLL-derived Mutant Peptide). Settings: fluorescence polarization; series mostly up to 61.6 µM.
Chain of UniProt O00255 (O00255 whole entry, looked up): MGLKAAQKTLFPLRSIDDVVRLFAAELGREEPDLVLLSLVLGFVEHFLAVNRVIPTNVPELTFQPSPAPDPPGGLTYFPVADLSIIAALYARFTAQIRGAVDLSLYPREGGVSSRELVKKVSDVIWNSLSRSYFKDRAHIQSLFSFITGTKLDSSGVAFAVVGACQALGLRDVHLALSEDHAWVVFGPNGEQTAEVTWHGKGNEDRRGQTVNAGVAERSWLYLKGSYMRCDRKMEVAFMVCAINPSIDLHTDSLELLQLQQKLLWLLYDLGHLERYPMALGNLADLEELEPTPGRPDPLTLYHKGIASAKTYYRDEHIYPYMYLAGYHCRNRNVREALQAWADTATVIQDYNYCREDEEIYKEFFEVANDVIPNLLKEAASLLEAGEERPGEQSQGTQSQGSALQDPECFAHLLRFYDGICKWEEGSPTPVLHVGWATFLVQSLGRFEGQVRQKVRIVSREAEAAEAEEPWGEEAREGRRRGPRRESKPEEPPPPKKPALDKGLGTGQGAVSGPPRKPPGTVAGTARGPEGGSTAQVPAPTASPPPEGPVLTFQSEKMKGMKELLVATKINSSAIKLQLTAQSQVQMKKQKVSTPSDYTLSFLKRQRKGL
In the case of COc1ccc2[nH]cc(CCNc3ncnc4ccc(-c5cccnc5)cc34)c2c1, the Potency is reported as inconclusive: 22.4 µM [quencher, side channel, single point].
COc1cccc2sc(NNC(=O)c3nc4ccccc4s3)nc12 was tested, and the Potency was inconclusive: 28.2 µM [quencher, side channel, single point].
With Cc1cccc(OCCn2c(NC(=O)c3ccco3)nc3ccccc32)c1 the Potency was inconclusive: 14.1 µM [quencher, side channel, partial curve].
For NC(=O)COc1ccc2cc(-c3ccc(F)cc3)c(=O)oc2c1, the Potency was “inactive”.
Cc1ccc(N2C(=O)c3ccccc3C2=O)cc1C was tested, and the Potency was inconclusive: 39.8 µM [inhibitor, single point].
In the case of CCCCCCC(=O)N1C/C=C\C(c2ccc(OC)cc2)N(Cc2ccc(F)cc2)C(=O)C1Cc1ccccc1 (stereo not drawn), the Potency is reported as inconclusive: 3.55 µM [inhibitor, partial curve].
CCCCNc1nc(CC)c2c(c1C#N)CCCC2 was tested, and the Potency was “inactive”.
For COc1cc(C(=O)Nc2ccc(C)cc2)c2ccccc2n1, the Potency was inconclusive: 39.8 µM [fluorescent, single point].
In the case of COc1ccc(CC(=O)NNC(=O)CCC(=O)Nc2cc(C)ccc2C)cc1, the Potency is reported as inconclusive: 28.2 µM [fluorescent, side channel, single point].
With CC(=O)O[C@]1(C(C)=O)CC[C@H]2C3C=C(Cl)C4=CC(=O)[C@@H]5C[C@H]5[C@]4(C)C3CC[C@@]21C (stereo partly drawn) the Potency was inconclusive: 10 µM [fluorescent, side channel, partial curve].
CCOC(=O)c1sc(N2C(=O)C(O)=C(C(=O)c3ccco3)C2c2ccco2)nc1C (stereo not drawn) was tested, and the Potency was inconclusive: 31.6 µM [quencher, side channel, single point].
Fc1ccc(/C=N/Nc2nc3ccccc3[nH]2)cc1F was tested, and the Potency was inconclusive: 22.4 µM [quencher, side channel, partial curve].
For COc1ccc(NC(=O)Nc2nnc(-c3ccncc3)s2)cc1, the Potency was inconclusive: 22.4 µM [quencher, side channel, single point].
COc1cccc(CN2CCC(N(CCc3ccccc3)Cc3ccccc3)CC2)c1OC was tested, and the Potency was inconclusive: 14.1 µM [fluorescent, side channel, partial curve].
For O=C(NC1(C(F)(F)F)N=C2SCCN2C1=O)c1ccccc1 (stereo not drawn), the Potency was inconclusive: 39.8 µM [inhibitor, partial curve, poor fit].
For CCOC(=O)N1CCN(C(=S)NC(=O)c2ccc(F)cc2)CC1, the Potency was “inactive”.
For CCc1cccc(NC(=O)Nc2cccs2)c1, the Potency was inconclusive: 15.8 µM [quencher, side channel, partial curve].
CN(C1CCCCC1)C(CNS(=O)(=O)c1ccc(Cl)cc1)c1ccccc1 (stereo not drawn) was tested, and the Potency was inconclusive: 15.8 µM [fluorescent, side channel, partial curve].
COC(=O)c1sc(=S)sc1C(=O)OC was tested, and the Potency was “inactive”.
For COC(=O)N[C@@H](c1cccc(F)c1)[C@@H](C)[N+](=O)[O-], the Potency was “inactive”.
In the case of CCC(C)[C@@H](CN(N=O)[C@@H](Cc1ccccc1)CN(C)N=O)N(CCc1ccccc1)N=O (stereo partly drawn), the Potency is reported as inconclusive: 1.78 µM [fluorescent, side channel, full curve, poor fit].
In the case of CCc1nnc(NS(=O)(=O)c2ccc(N/C=C/C(=O)c3ccc(C)cc3)cc2)s1, the Potency is reported as inconclusive: 25.1 µM [quencher, side channel, single point].
With Oc1cccc(N2Cc3ccccc3C2)c1 the Potency was inconclusive: 25.1 µM [quencher, side channel, single point].
For Cc1ccc2cc(CCNC(=O)C(=O)c3c[nH]c4ccccc34)c(=O)[nH]c2c1, the Potency was inconclusive: 28.2 µM [inhibitor, single point].
CC(=O)Nc1ccc(NC(=O)CSc2nnc3c4ccccc4n(C)c3n2)cc1 was tested, and the Potency was inconclusive: 8.91 µM [inhibitor, single point].
Cc1cc(C)c(S(=O)(=O)N2CCc3ccccc32)c(C)c1 was tested, and the Potency was inconclusive: 17.8 µM [fluorescent, side channel, partial curve].
O=C1C(Cl)=C(NCCN2CCOCC2)C(=O)c2ccccc21 was tested, and the Potency was inconclusive: 2 µM [inhibitor, full curve, poor fit].
For Cc1ccccc1NC(=O)CC1(c2ccc(N(C)C)cc2)C(=O)c2ccccc2C1=O, the Potency was inconclusive: 25.1 µM [inhibitor, single point].
O=c1c(C(c2ccccc2)c2c(O)sc3ccccc3c2=O)c(O)sc2ccccc12 was tested, and the Potency was inconclusive: 5.62 µM [quencher, side channel, single point].
With CCCCS(=O)CC(COc1ccc(Cl)cc1)OC(=O)c1ccccc1 (stereo not drawn) the Potency was inconclusive: 7.94 µM [fluorescent, side channel, partial curve].
In the case of CCN(c1cccc(C)c1)S(=O)(=O)c1nnc(NC(=O)c2ccco2)s1, the Potency is reported as inconclusive: 10 µM [quencher, side channel, partial curve].
In the case of Cc1ccc(/C=N/NC(=O)c2cc3ccccc3cc2O)o1, the Potency is reported as inconclusive: 11.2 µM [quencher, side channel, single point].
For CC1CCC(C(C)C)C(OCC(O)CN2CCCC(C)C2)C1 (stereo not drawn), the Potency was inconclusive: 8.91 µM [fluorescent, side channel, full curve, poor fit].
With COc1ccc(CNC(=O)C(c2ccncc2)N(C(=O)Cc2cccs2)c2ccccc2C)cc1 (stereo not drawn) the Potency was inconclusive: 31.6 µM [fluorescent, side channel, single point].
For CC1Cc2ccccc2N1S(=O)(=O)c1cccs1 (stereo not drawn), the Potency was inconclusive: 8.91 µM [inhibitor, single point].
With Cc1cccc(OCCOCCSc2ncccn2)c1 the Potency was “inactive”.
CCNC(=S)NNC(=O)c1ccccc1Cl was tested, and the Potency was “inactive”.
For O=C(COC(=O)c1ccco1)Nc1nc2c(F)c(F)c(F)cc2s1, the Potency was inconclusive: 10 µM [quencher, side channel, partial curve].
